Results reported in PubChem BioAssay (NCI).
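Each compound was tested at five concentrations against cells in 96-well plates for 48 hours. The concentration for 50% growth inhibition is given as GI50.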 For part of its entries the source gives two or more results. Only these are listed. An entry can have further records. For part of these data: The records of an entry repeat one measurement in other runs, samples, wells, individuals or studies. What stands in brackets tells the records apart. Letters hold for one entry only.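 TGI marks complete inhibition of growth.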 For part of these data: The tests behind the records often covered other concentration ranges, which the source does not state; some values may only mark the edge of a range.

What was measured:
Assay in all cases: inhibition of tumour cell growth, NCI panel, 48 h
MCF7 breast = system: MCF7 breast
NCI-H460 lung = system: NCI-H460 lung
OVCAR-3 ovarian = system: OVCAR-3 ovarian
KM12 colon = system: KM12 colon
SR leukemia = system: SR leukemia
ACHN renal = system: ACHN renal
MOLT-4 leukemia = system: MOLT-4 leukemia
RPMI-8226 leukemia = system: RPMI-8226 leukemia
HS 578T breast = system: HS 578T breast
HOP-62 NSCLC = system: HOP-62 NSCLC
SF-295 CNS = system: SF-295 CNS
U251 CNS = system: U251 CNS
SNB-19 CNS = system: SNB-19 CNS
TK-10 renal = system: TK-10 renal
786-0 renal = system: 786-0 renal
HOP-92 NSCLC = system: HOP-92 NSCLC
SK-MEL-28 melanoma = system: SK-MEL-28 melanoma
EKVX NSCLC = system: EKVX NSCLC
RXF 393 renal = system: RXF 393 renal
T-47D breast = system: T-47D breast
SK-OV-3 ovarian = system: SK-OV-3 ovarian
OVCAR-4 ovarian = system: OVCAR-4 ovarian
PC-3 prostate = system: PC-3 prostate
SNB-75 CNS = system: SNB-75 CNS

COC(=O)C1OC(O[C@H]2CC[C@]3(C)[C@H]4CC=C5[C@@H]6CC(C)(C)CC[C@]6(C(=O)OC6OCC(O)C(O)C6OC6OC(C)C(OC7OCC(O)C(O)C7O)C(O)C6O)[C@H](O)C[C@@]5(C)[C@]4(C)CC[C@H]3C2(C)C)C(O)C(O)C1O (stereo not given in full)
GI50 (MCF7 breast): 2.68 µM [sample A, mean of 2 tests] and 188 nM [sample B, mean of 2 tests]

C[C@@H]1C[C@@H]([C@H](O)CC2CC(=O)NC(=O)C2)C(=O)[C@@H](C)C1
TGI (NCI-H460 lung): > 100 µM [sample A] and 8.99 µM [sample B]
TGI (OVCAR-3 ovarian): 1.73 µM [sample A] and > 21.2 µM [sample B]
TGI (KM12 colon): 2.06 µM [sample A] and > 21.4 µM [sample B]
TGI (SR leukemia): 396 nM [sample A] and 8.39 µM [sample B]
TGI (ACHN renal): 627 nM [sample A] and 14 µM [sample B]

[N-]=[N+]=CC(=O)CCC(N)C(=O)O (stereo not given)
TGI (MOLT-4 leukemia): 993 nM and 109 µM
TGI (RPMI-8226 leukemia): 19.6 µM and > 250 µM

OCC(O)C(O)C(O)C(/C=N\Nc1ncnc2c(Br)cc(Br)cc12)=N/Nc1ncnc2c(Br)cc(Br)cc12 (stereo not given)
GI50 (HS 578T breast): 4.3 µM [sample A, 1 test] and > 100 µM [sample B, 1 test]
TGI (HOP-62 NSCLC): 4.87 µM [sample A, 1 test] and > 100 µM [sample B, 1 test]
TGI (SF-295 CNS): 6.88 µM [sample A, 1 test] and > 100 µM [sample B, 1 test]
TGI (U251 CNS): 6.12 µM [sample A] and > 100 µM [sample B]
GI50 (SNB-19 CNS): 2.81 µM [sample A, 1 test] and > 100 µM [sample B, 1 test]
TGI (SNB-19 CNS): 8.91 µM [sample A, 1 test] and > 100 µM [sample B, 1 test]
GI50 (TK-10 renal): 4.63 µM [sample A, 1 test] and > 100 µM [sample B, 1 test]
TGI (786-0 renal): 9.51 µM [sample A, 1 test] and > 100 µM [sample B, 1 test]
GI50 (HOP-92 NSCLC): 2.54 µM [sample A, 1 test] and > 100 µM [sample B, 1 test]
TGI (HOP-92 NSCLC): 7.37 µM [sample A, 1 test] and > 100 µM [sample B, 1 test]
GI50 (SK-MEL-28 melanoma): 1.83 µM [sample A, 1 test] and > 100 µM [sample B, 1 test]
TGI (SK-MEL-28 melanoma): 6.12 µM [sample A, 1 test] and > 100 µM [sample B, 1 test]
TGI (EKVX NSCLC): 4.69 µM [sample A, 1 test] and > 100 µM [sample B, 1 test]
GI50 (RXF 393 renal): 2.28 µM [sample A, 1 test] and > 100 µM [sample B, 1 test]
TGI (RXF 393 renal): 5.32 µM [sample A, 1 test] and > 100 µM [sample B, 1 test]
TGI (T-47D breast): 9.86 µM [sample A] and > 100 µM [sample B]
GI50 (KM12 colon): 8.84 µM [sample A, 1 test] and > 100 µM [sample B, 1 test]
GI50 (SK-OV-3 ovarian): 2.96 µM [sample A, 1 test] and > 100 µM [sample B, 1 test]
TGI (OVCAR-4 ovarian): 7.29 µM [sample A] and > 100 µM [sample B]
GI50 (PC-3 prostate): 3.98 µM [sample A, 1 test] and > 100 µM [sample B, 1 test]
GI50 (SNB-75 CNS): 2.32 µM [sample A, 1 test] and > 100 µM [sample B, 1 test]
TGI (SNB-75 CNS): 4.88 µM [sample A, 1 test] and > 100 µM [sample B, 1 test]
